Laboratory results as given in PubChem BioAssay AID1159614 (National Center for Advancing Translational Sciences (NCATS), 2016).
About 65 (0.1%) of roughly 45,000 compounds were called active. Calls come from the whole dose curve; as a rule, active = well fitted activation curve with a large enough effect; inconclusive = small, poorly fitted or top-dose-only effect; inactive = no such curve, though single readings can be large or run the other way. The list shows a part of the results.

These molecules were tested against Galactocerebrosidase (Homo sapiens) (UniProt P54803) (assay: A Novel Cell-Based Assay to Identify Small Molecules for B -Galactocerebrosidase). Details: 145M-Twi-hGALC-G270D cells (Twitcher mouse brain line with human GALC G270D), HMU-beta-Gal fluorescence, 48 h; series mostly up to 57.5 µM; activation: at the top concentration.
In short: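 Brain-derived Twitcher mouse 145M-Twi cells stably expressing human GALC-G270D or wild-type GALC, treated live, then residual GALC activity read by fluorescence of HMU-b-Gal substrate (0.1 mM final) in citrate-phosphate buffer pH 5.2 with sodium taurocholate. Signal increase indicates enhancement.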
Note: 0% is about no effect; nearly all actives have a fitted effect of over 65% in size.

Sequence of UniProt P54803 (P54803 whole entry, looked up): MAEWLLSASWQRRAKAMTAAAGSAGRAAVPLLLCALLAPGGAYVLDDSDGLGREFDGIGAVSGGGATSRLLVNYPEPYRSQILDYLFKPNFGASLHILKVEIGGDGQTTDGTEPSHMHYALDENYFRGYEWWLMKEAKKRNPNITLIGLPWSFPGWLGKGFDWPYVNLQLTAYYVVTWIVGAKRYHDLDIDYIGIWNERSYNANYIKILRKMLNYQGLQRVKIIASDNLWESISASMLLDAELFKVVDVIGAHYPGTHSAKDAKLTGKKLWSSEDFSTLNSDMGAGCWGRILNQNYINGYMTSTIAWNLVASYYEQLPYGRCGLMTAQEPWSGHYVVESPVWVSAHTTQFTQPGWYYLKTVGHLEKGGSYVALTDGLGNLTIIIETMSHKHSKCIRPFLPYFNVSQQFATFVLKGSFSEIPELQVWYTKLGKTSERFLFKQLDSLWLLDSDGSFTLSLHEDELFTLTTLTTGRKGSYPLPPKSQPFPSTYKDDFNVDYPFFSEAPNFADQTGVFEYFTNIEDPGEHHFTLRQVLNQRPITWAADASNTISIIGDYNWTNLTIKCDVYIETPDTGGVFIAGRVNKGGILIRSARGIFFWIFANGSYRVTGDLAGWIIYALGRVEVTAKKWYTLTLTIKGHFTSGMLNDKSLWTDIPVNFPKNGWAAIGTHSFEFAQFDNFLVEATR

activation, inactive:
COCCn1c(=O)[nH]c2cc(C(=O)N3CCN(c4ccc(F)cc4)CC3)ccc2c1=O -8.26%, Cc1cccc(OCC(=O)Nc2ccc(S(=O)(=O)N(Cc3ccccc3)c3ccccc3)cc2)c1 -16.5%, Cc1cc(-n2c(C)nc3ccccc3c2=O)ccc1NC(=O)c1cccc([N+](=O)[O-])c1C -16.2%, CCOCCc1nn2c(=O)cc(COC(=O)c3ccccc3Br)nc2s1 -9.05%, O=C(NCCc1csc(-c2ccc(C(F)(F)F)cc2)n1)c1ccccc1Cl -12.6%, Cc1ccc(-n2ncc3c(N4CCN(Cc5ccccc5)CC4)ncnc32)cc1C -12.3%, N#C/C(=C\c1ccc(-c2ccc(Br)cc2)o1)C(=O)Nc1ccccc1O -6.29%, Cc1oc(-c2ccccc2F)nc1Cn1c(SCc2cccc(Cl)c2)nc2ccncc21 -15.5%, CCCn1c(=N)c(C(=O)NCc2ccccc2)cc2c(=O)n3cccc(C)c3nc21 27.5%, Cc1ccc(CNC(=O)C(=O)NCC(c2cccs2)S(=O)(=O)c2ccccc2)cc1 (configuration not stated) -10.7%, O=c1n(Cc2ccc([N+](=O)[O-])cc2)c2ccccc2c2nc(-c3ccccc3)nn12 -5.15%, Cc1ccc(NC(=O)N(Cc2c[nH]c3ccccc23)C2CCCCCC2)cc1C 3.07%, O=C(CS(=O)(=O)c1ccc(Cl)cc1)Nc1nc2ccc(Br)cc2s1 -18.9%, COc1ccc(CCNC(=O)CCN2N=C(c3ccccc3)CCC2=O)cc1OC -10.8%, Cc1ccc(C(=O)N2CCc3cc(CNC(=O)c4ccccc4F)ccc32)cc1 -7.13%, Cn1c(=O)n(C)c2cc(CNCc3ccc(F)cc3)ccc21 -11.9%, CCOc1ccc(C2=C(C(C)=O)Sc3nnc(C)n3N2C(C)=O)cc1 -17.9%, Cc1c(NC(=O)Nc2ccccc2C(F)(F)F)c(=O)n(-c2ccccc2)n1C -14.7%, Cc1cc(C)cc(-n2c(SCC(=O)Nc3ccccc3F)nc3c(oc4ccccc43)c2=O)c1 -4.58%, CCOc1ccc(NC(=O)c2cccc3c(=O)c4c([nH]c23)CCCC4)cc1 -18%, Cc1ccc(Cn2cnc3nc4c(cc3c2=O)CCCC4)cc1 -7.09%, Cc1cc(C)c(NC(=O)CN(c2ccccc2)S(=O)(=O)N(C)C)c(C)c1 -25.5%, CCc1ccc(NC(=O)C2(c3cccs3)CCOCC2)cc1 1.43%, Cc1oc2ncn(CC(C)C)c(=O)c2c1C(=O)N1CCN(c2ccccc2F)CC1 -6.69%, Clc1ccc(-c2nnn3c2nc(N2CCCCC2)c2ccccc23)cc1 -7.16%, CCOc1ccc(NC(=O)c2cnn3c2NC(c2ccccc2)=CC3c2cccc(OC)c2OC)cc1 (configuration not stated) -15.9%, Cc1ccccc1NC(=O)c1cc2ccccc2o1 -4.85%, CSc1ccc(CCNC(=O)CN2C(=O)COc3ccc(S(=O)(=O)N4CCCC4)cc32)cc1 -28.8%, O=C(Nc1ccc2oc(-c3ccc4ccccc4c3)nc2c1)c1cccc(Cl)c1Cl -20%, COc1ccc(-n2c(=O)c3c4c(sc3n(Cc3c(F)cccc3Cl)c2=O)CN(C(C)=O)CC4)cc1OC -15.8%, O=C(Nc1ccc(F)cc1)c1ncn(-c2ccccc2)n1 -20.7%, CCOC(=O)c1cnc2c(Cl)c(Cl)ccc2c1Nc1ccc(N(C)C)cc1 -6.44%, Cc1ccccc1-n1c(=O)c2ccccc2n(Cc2ccc(F)cc2)c1=O -5.59%, COc1ccc(C2CC(=O)N(Cc3cccc(C)c3)c3c2c(C)nn3-c2nc(C)cc(C)n2)c(OC)c1 (configuration not stated) -15.4%, COC(=O)c1sc2cccc(F)c2c1S(=O)(=O)NCc1ccc(F)cc1 -1.7%, COc1cccc(-c2nc(SCC(=O)NCc3ccccc3)c3c(=O)n(C)c(=O)n(C)c3n2)c1 -14.6%, CCCCSCCCNC(=O)c1cn(CC)c2ccc(S(=O)(=O)N(C)C3CCCCC3)cc2c1=O -19.2%, COc1cccc(N2CCN(S(=O)(=O)c3ccc(-c4cc(C(F)(F)F)on4)s3)CC2)c1 -9.09%, O=C(Cn1ccc2cc(S(=O)(=O)N3CCCCCC3)ccc21)NCCc1ccccc1Cl -9.31%, Cc1ccc(CCNC(=O)CCS(=O)(=O)c2ccc3c(c2)oc(=O)n3C)cc1 -23.8%, O=S(=O)(c1ccccc1)n1nc(-c2ccc(Cl)cc2)nc1NCc1ccc(F)cc1 -34.1%, COc1cccc(NC(=O)Cn2c(=O)c3cccn3c3ccc(F)cc32)c1 -15.9%, Cc1ccc(-c2noc(CN(C(=O)c3ccc(C(C)(C)C)cc3)C(C)C)n2)cc1 -39.2%, CCCc1cc(C(N)=S)ccn1 -9.05%, CCOC(=O)c1ccccc1NC(=O)CN(c1cc(C(F)(F)F)ccc1Cl)S(C)(=O)=O -12.4%, CN(CC(=O)NCc1ccc(Cl)cc1)S(=O)(=O)c1ccc2c(c1)c(=O)n(C)c(=O)n2C 14.7%, Cc1ccc(CCNC(=O)c2ccc(CS(=O)(=O)Cc3ccc(Cl)cc3)o2)cc1 1.46%, CCOC(=O)c1scc(-c2ccc(C)cc2)c1S(=O)(=O)Nc1cc(C)ccc1C -44.4%, COc1cc(Cl)c(C)cc1NC(=O)Cn1cnc2sc(C)c(S(=O)(=O)N3CCCCC3)c2c1=O -13.7%, Cc1noc(NS(=O)(=O)c2ccc(NC(=O)COc3ccccc3Br)cc2)c1C -10.1%, CCOc1ccccc1NC(=O)Nc1ccccc1OCc1cc(=O)n2ccccc2n1 -6.92%, CC(Nc1ncnc2c1cnn2-c1cccc(Cl)c1)c1ccccc1 (configuration not stated) -21.9%, COc1cccc(-c2nnc(SCC(=O)N3CCc4ccccc43)o2)c1 -8.26%, O=C(NCc1ccc(Cl)cc1)C(=O)NCC(c1cccnc1)N1CCN(c2ccccc2)CC1 (configuration not stated) -13%, CCS(=O)(=O)c1c(S(=O)(=O)CC)c2cc(C(C)(C)C)ccn2c1C(=O)c1ccc(F)cc1 -16.8%, Cc1cc2c(cc1C)NC(CC(=O)Nc1cccc(C)c1C)C(=O)N2 (configuration not stated) -6.87%, COc1cc(/C=C/C(=O)O[C@H]2CC[C@]34C[C@]35CC[C@]3(C)[C@@H]([C@H](C)CCC=C(C)C)CC[C@@]3(C)[C@@H]5CC[C@H]4C2(C)C)ccc1O -13.4%, CCOc1ccccc1NC(=O)Cn1c(=O)n(-c2ccc(C)c(C)c2)c(=O)c2c(C)c(C(=O)N(C)C)sc21 -7.97%, Cc1cccc(COc2ccc(-c3cc(C(F)(F)F)n4nc(C)cc4n3)cc2)c1 -1.49%, CCc1ccc(-c2nc3cc(NC(=O)c4ccc(F)cc4)ccc3o2)cc1 -12.7%, Cc1ccc(CNC(=O)CCN2C(=O)C(C)Oc3ccc(C)cc32)cc1 (configuration not stated) -4.32%, Cc1ccc(Nc2c3c(nc4ccccc24)CCC3)cc1F -33.5%, NNCCc1ccccc1 -18.3%, COc1ccc(OC)c(S(=O)(=O)NCCc2sc(C)nc2C)c1 -16.1%, Cc1c(Cl)cccc1NC(=O)CCS(=O)(=O)c1cccc2nsnc12 -5.94%, CCCCNC(=O)c1ccc(-c2nc(CN3CCc4ccccc43)c(C)o2)cc1 12%, Cc1ccc(NC(=O)CCNS(=O)(=O)c2cccs2)cc1F -9.57%, COc1ccccc1N(CC(=O)NCCSc1ccccc1)S(=O)(=O)c1ccc(C)cc1 -16.3%, COc1cccc(-c2nn(C)c3sc(C(=O)N4CCN(c5cccc(C(F)(F)F)c5)CC4)cc23)c1 -4.27%, Cc1cn2c(=O)cc(COC(=O)COc3ccc(F)cc3)nc2s1 -1.51%, COC1(C(F)(F)F)NC(=O)N(c2ccc(F)cc2)C1=O (configuration not stated) -13.7%, CSc1ncc2c(n1)-c1ccccc1N(Cc1ccccc1C)S2(=O)=O -4.21%, COc1ccc(-n2c(=O)c3c(c4cc(OC)ccc4n3C)n(Cc3c(F)cccc3Cl)c2=O)cc1 -4.52%, Cc1cccc(-n2c3nc(=O)n(C)c(=O)c-3cc3c(C)nn(-c4ccccc4)c32)c1C -11.2%, COc1cccc(CCNC(=O)c2cnc3sc(N4CCCC4)nn3c2=O)c1 -6.87%, CC1CCc2c(sc3nnn(CC(=O)Nc4ccccc4Cl)c(=O)c23)C1 (configuration not stated) -13%, Fc1ccc(NCc2nc3ccccc3n2CCOc2ccccc2Cl)cc1 -4.7%, CSc1nc2sc3c(c2c(=O)n1-c1ccc(C)cc1)CCCC3 -5.27%, COc1ccc(Cl)cc1NC(=O)N1CCC2(CC1)Oc1ccccc1C(=O)N2Cc1ccc(F)cc1 -9.33%, COc1ccc(NC(=O)N2CCC(n3c(C)nc4cccnc43)CC2)cc1OC -10.7%, CCOC(=O)C1=C(CN(CC)Cc2ccccc2)NC(=O)NC1c1ccc(Cl)cc1 (configuration not stated) -7.41%, CCOC(=O)c1cnn(-c2cccc(Cl)c2)c1C1CCN(C(=O)OC(C)(C)C)CC1 -10.9%, Cc1ccc(OCCSc2nc3ccc(NC(=O)COc4ccc(C)cc4)cc3s2)cc1 -3.32%, O=C(CCSCc1ccccc1Cl)NCCc1ccccc1 -2.1%, O=C(Cn1ccn(-c2ccc(F)c(F)c2)c(=O)c1=O)NCc1ccccc1 -17.6%, CCCn1cc(S(=O)(=O)c2ccc(OCC)cc2)c(=O)c2cc(C)ccc21 -18.9%, CCOc1ccc(-c2c(C)nn3c(C)c(C(=O)NC(C)c4ccccc4)cnc23)cc1OCC (configuration not stated) -15.4%, CCCCC(=O)Nc1cc(-c2cn3cccnc3n2)ccc1C 8.57%, CCOC(=O)c1cc2c(=O)n3ccccc3nc2n(CC2CCCO2)c1=NC(=O)c1ccc(OCC)cc1 (configuration not stated) -11.1%, CN(Cc1ccccc1)C(=O)c1c[nH]c2ccc(S(=O)(=O)Nc3ccccc3F)cc2c1=O 2.94%, Cc1cc(C)c(NC(=O)c2cc(S(=O)(=O)N3CCCC3)cn2C)c(C)c1 -7.86%, COc1cc(Cl)c(S(=O)(=O)N2CCN(c3c(C)cccc3C)CC2)cc1Cl -13%, Cc1ccc(OCCSc2nc3ccccc3n2CC(=O)N2CCOCC2)cc1C -19.2%, COc1cc2nc(NCCc3ccc(Cl)cc3)n3nc(-c4ccccc4)nc3c2cc1OC 6.53%, COc1ccc(N2CCN(CCCNC(=O)c3sc4ncccc4c3-n3cccc3)CC2)cc1 -13.3%, CC(C)OCCCNC(=O)Cn1c(-c2cccs2)cc2cc(F)ccc21 0.864%, CCOc1cc(C(=O)N2CC(=O)Nc3ccc(F)cc3C2c2ccccc2)cc(OCC)c1OCC (configuration not stated) -24.5%
